# Laboratory results: PubChem BioAssay AID504832 (National Center for Advancing Translational Sciences (NCATS), 2011)
# Several values for one entry are separate records, joined by “and”; a condition that tells them apart may be missing. Equal values may be shown once. The whole screen tested about 310,000 compounds, of which about 18,000 (5.8%) were called active. The shares of active, inactive and inconclusive entries below differ from those in the screen. Calls follow the shape of the dose curve; as a rule, active = well fitted inhibition curve with a large enough effect; inconclusive = small, poorly fitted or top-dose-only effect, or another doubt; inactive = no such curve, though single readings can be large or run the other way. Potencies beside an inconclusive call are fits to weak or partial responses and may not hold up.
# Assay: Primary qHTS for delayed death inhibitors of the malarial parasite plastid, 48 hour incubation
# Conditions: P. falciparum luciferase growth in erythrocytes; series mostly up to 28.7 µM
# Method in brief: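 Compounds are pin-transferred into medium, infected erythrocytes (2% hematocrit, 0.1% parasitemia final) are added, and plates sit one parasite generation at 37 C in 5% CO2. Detection reagent is then added and luminescence measured.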
# Potency is read from the fitted curve at half-maximal effect; tags tell the direction and shape of the fitted curve.
row,SMILES,Potency
1,Cc1cccc2c1N(CC(=O)OC(C)C)C(=O)C2=O,inactive
2,C[C@@H](C(=O)Nc1ccc2ccccc2c1)[C@@H]1C[C@@]1(C)[C@@H](NC(=O)c1ccccc1)c1ccccc1,"inconclusive: 7.38 µM [inhibitor, partial curve, poor fit]"
3,CNc1ccc2nnc(C(F)(F)C(F)(F)C(F)(F)F)n2n1,inactive
4,COc1cc(C(c2sc3nc(C)nn3c2O)N2CCN(c3ccccc3)CC2)cc(OC)c1OC (centres undefined),"inconclusive: 8.28 µM [inhibitor, partial curve, poor fit]"
5,CCCn1c(C2CC(=O)N(c3ccc(C)cc3)C2)nc2ccccc21 (centres undefined),"inconclusive: 18.5 µM [inhibitor, single point]"
6,Cc1nc(-c2ccccc2)sc1-c1nc(-c2cccs2)ncc1S(=O)(=O)c1ccccc1,"inconclusive: 1.65 µM [inhibitor, full curve, poor fit]"
7,Cc1ccc2cn[nH]c2c1NC(N)=S,inactive
8,O=C(NCCc1ccccc1)C(=O)c1c(-c2ccccc2)[nH]c2ccccc12,inactive
9,Cc1ccc2c(CC(=O)NCC(=O)Nc3c(C)cccc3C)coc2c1,"inconclusive: 2.33 µM [inhibitor, single point]"
10,Cc1ccc(NC(=O)COC(=O)c2ccc([N+](=O)[O-])o2)cc1S(=O)(=O)N1CCCCCC1,inactive
11,COC(=O)c1ccc(C2Nc3ccc(/C(C)=N/NC(=O)C(OC)c4ccccc4)cc3C3C=CCC32)cc1 (centres undefined),"inconclusive: 2.62 µM [inhibitor, partial curve, poor fit]"
12,CCc1cc2c(=O)n(Cc3ccco3)c(SCC(=O)NC3CCS(=O)(=O)C3)nc2s1 (centres undefined),"inconclusive: 18.5 µM [inhibitor, single point]"
13,CC12CCC(=O)N1C(C(=O)NCCN1C(=O)S/C(=C\c3ccc(F)cc3)C1=O)CS2 (centres undefined),"inconclusive: 10.4 µM [inhibitor, single point]"
14,O=C(Nc1cccc(C(=O)N2CCN(c3ccccc3)CC2)c1)c1ccco1,inactive
15,COc1ccc(CN(C)C(=O)C2CC(=O)N(c3ccc4c(c3)OCCO4)C2)c(OC)c1 (centres undefined),"inconclusive: 13.1 µM [inhibitor, partial curve]"
16,CN(C)CCN(Cc1cccs1)S(=O)(=O)c1csc(C(N)=O)c1,inactive
17,COc1ccc(C(=O)NCCc2c[nH]c3ccccc23)cc1S(=O)(=O)N1CCOCC1,"inconclusive: 5.86 µM [inhibitor, partial curve, poor fit]"
18,CC(CN1c2ccccc2Sc2ccccc21)N(C)C (centres undefined),"inconclusive: 7.57 µM [inhibitor, single point] and inconclusive: 10.4 µM [inhibitor, single point]"
19,Cc1cc(CNC(=O)Cc2c(F)cccc2Cl)nn1C,inactive
20,COC(=O)[C@H](Cc1ccccc1)NC(=O)NCc1ccc(S(N)(=O)=O)cc1,inactive
21,CC(=O)NC1CCCc2c1cnn2-c1ccc(C(C)(C)C)cc1 (centres undefined),"inconclusive: 2.94 µM [inhibitor, partial curve]"
22,Cc1cc(S(=O)(=O)Nc2ccc(C(=O)NCC(c3ccco3)N3CCCC3)cc2)ccc1F (centres undefined),"inconclusive: 13.1 µM [inhibitor, partial curve]"
23,COc1ccc(OC)c(NC(=O)CN(c2ccc(C)cc2)S(=O)(=O)c2c(C)noc2C)c1,"inconclusive: 11.7 µM [inhibitor, single point]"

row,SMILES,Potency
1,C=CCN=C1N[C@@H](c2ccc(Br)cc2)C(C(=O)OC)=C(C)N1Cc1ccccc1,"inconclusive: 13.1 µM [inhibitor, partial curve, poor fit]"
2,CN1CCN(c2ccc(NC(=S)NC(=O)/C=C/c3ccco3)cc2)CC1,"inconclusive: 18.5 µM [inhibitor, single point]"
3,COc1cccc(NS(=O)(=O)c2cc3[nH]c(=O)c(=O)[nH]c3cc2C)c1,"inconclusive: 11.7 µM [inhibitor, single point]"
4,CC(=O)N1[C@H](C)C=C[C@]1(Cc1ccccc1)C(=O)NCCc1c[nH]c2ccccc12,"inconclusive: 1.04 µM [inhibitor, full curve, poor fit]"
5,CCCCOC(=O)c1ccc(NC(=O)/C=C/c2cccs2)cc1,inactive
6,O=C(CNC(=O)c1ccc(-c2ccccc2)cc1)Nc1ccc(S(=O)(=O)Nc2ncccn2)cc1,inactive
7,CC(C)CC(c1nnnn1CCc1ccccc1)N1CCC(C(N)=O)CC1 (centres undefined),inactive
8,Cc1cc(-c2ccccc2)nc(N2CCC(C(=O)NC(C)C)CC2)n1,inactive
9,COc1ccc(Nc2cc3n(c(=O)n2)CCc2cc(OC)c(OC)cc2-3)c(C)c1,"inconclusive: 6.57 µM [inhibitor, partial curve, poor fit]"
10,CCCNC(=O)c1n[nH]c2c1CC(C(C)(C)CC)CC2 (centres undefined),"inconclusive: 18.5 µM [inhibitor, single point]"
11,O=C(c1cc2nc(-c3ccco3)cc(C(F)(F)F)n2n1)N1CCN(c2ccc(F)cc2)CC1,"inconclusive: 10.4 µM [inhibitor, single point]"
12,Cc1cc(C(=O)N/N=C2\CCCC(C)C2)n[nH]1 (centres undefined),inactive
13,CC1(C)CC(=O)C2=C(C1)NC(SCC(=O)Nc1ccccc1)=C(C#N)C2c1ccco1 (centres undefined),"inconclusive: 8.28 µM [inhibitor, partial curve]"
14,Cc1cc(=O)oc2c3c(cc(OCC(=O)NC(C)C)c12)OC(C)(C)CC3,active: 9.28 µM
15,CC(C)[C@H](CO)N(Cc1cccc(F)c1)c1nc(Nc2cccc(Cl)c2)c2ncn(C(C)C)c2n1,active: 11.7 µM
16,Cc1ccc([N+](=O)[O-])c2c1C(N1CCCC1)C(C)(C)O2 (centres undefined),"inconclusive: 10.4 µM [inhibitor, partial curve]"
17,CCNC(=O)CC1C(=O)N(c2ccc(OC)cc2)C(=S)N1CCc1ccncc1 (centres undefined),"inconclusive: 5.22 µM [inhibitor, partial curve, poor fit]"
18,Oc1ccc(CNCC2COc3ccccc3O2)cc1 (centres undefined),"inconclusive: 11.7 µM [inhibitor, single point]"
19,Cc1nc2c(=O)oc3ccccc3c2n1-c1ccccc1,"inconclusive: 6.57 µM [inhibitor, partial curve, poor fit]"
20,CN(CC(=O)Nc1cccc(F)c1)C(=O)c1cn(-c2ccccc2)nc1-c1ccc(F)cc1,"inconclusive: 14.7 µM [inhibitor, single point]"
21,COc1ccc(N(C(=O)c2ccco2)C(C(=O)NC2CCCC2)c2cccs2)c(OC)c1 (centres undefined),"inconclusive: 9.28 µM [inhibitor, single point]"
22,Cc1cc(N2CCN(Cc3cn(C)nc3-c3cccc(Cl)c3)CC2)cc(C)n1,"inconclusive: 11.7 µM [inhibitor, single point]"
23,COC(=O)c1ccccc1NC(=O)C1CC(=O)N(c2ccc(F)cc2)C1 (centres undefined),"inconclusive: 18.5 µM [inhibitor, single point]"

row,SMILES,Potency
1,O=C(COC(=O)c1ccncc1)c1ccc(Br)cc1,inactive
2,O=C(NCC1COc2ccccc2O1)c1ccc(NC(=O)c2ccco2)cc1 (centres undefined),"inconclusive: 8.28 µM [inhibitor, partial curve, poor fit]"
3,COc1ccc(/C=C/C(=O)NCCc2c[nH]c3ccccc23)cc1OC,active: 8.28 µM
4,COCCOCCn1c(CCCO)nc2ccccc21,inactive
5,CC1CCN(CCCNC(=O)C2CC(=O)N(C3CCCCCC3)C2)CC1 (centres undefined),inactive
6,Cc1nonc1NC(=O)CSc1nc(C23CC4CC(CC(C4)C2)C3)nc2ccccc12,"inconclusive: 18.5 µM [inhibitor, single point]"
7,C/C(=C/c1ccccc1)C(=O)N1CCN(c2ccc(F)cc2)CC1,inactive
8,CCOC(=O)C(C)Sc1ccc2nnc(CCNS(=O)(=O)c3ccccc3)n2n1 (centres undefined),"inconclusive: 10.4 µM [inhibitor, single point]"
9,CN1CCN(S(=O)(=O)c2ccc(NC(=O)c3ccccc3F)cc2)CC1,"inconclusive: 14.7 µM [inhibitor, single point]"
10,Fc1ccc(-n2c(-c3ccc4c(c3)OCO4)n[nH]c2=S)cc1Cl,inactive
11,Cc1ccc(C(=S)N2CCN(Cc3ccccc3)CC2)s1,inactive
12,Cc1cc(-c2ccc(C(C)C)c(S(=O)(=O)N3CC(=O)Nc4ccccc43)c2)on1,"inconclusive: 13.1 µM [inhibitor, single point]"
13,O=C(CCCc1ccccc1)Nc1ccc(Br)cc1F,inactive
14,COc1ccc(C(=O)C2CCCN(C3Cc4ccccc4C3)C2)cc1OC (centres undefined),"inconclusive: 18.5 µM [inhibitor, single point]"
15,O=S(=O)(Cc1ccccc1)N1CCN(c2ncccn2)CC1,inactive
16,CCOC(=O)Cn1c2c(c(=N)c3ccccc31)CCC2,"inconclusive: 0.657 µM [inhibitor, partial curve]"
17,CCOc1ccc(NS(=O)(=O)N(C)C)cc1,inactive
18,O=C(c1ccc(Cl)cc1)N(Cc1ccco1)C1CCS(=O)(=O)C1 (centres undefined),inactive
19,CCN(CC)CCCN(Cc1cc2cc3c(cc2[nH]c1=O)OCO3)C(=S)NCc1ccco1,"inconclusive: 6.57 µM [inhibitor, partial curve, poor fit]"
20,Cc1ccc(NNC(=O)C(O)(c2cccc(C(F)(F)F)c2)c2cccc(C(F)(F)F)c2)cc1,active: 13.1 µM
21,CN1CCN(CCCNC(=O)c2ccc(/C=C3\Sc4ccccc4N(Cc4ccc(F)cc4)C3=O)cc2)CC1,"inconclusive: 11.7 µM [inhibitor, partial curve, poor fit]"
22,COc1cc(OC)cc(C(=O)Nc2ccc(-n3cnnn3)c(C)c2)c1,inactive
23,O=c1c2ccccc2nnn1CSc1nnc(C2COc3ccccc3O2)n1-c1ccccc1 (centres undefined),"inconclusive: 5.22 µM [inhibitor, partial curve]"
